# The full ranking holds about 4,500 sequences; the median of “median log2 fold change of GCK-ALFA target abundance (FLAG IP / Myc IP barcode read proportion)” is about 0.078, and the lowest 2% start at about -0.6. The list shows a part of the results.
# B1: GBRAP_35_5593 (protein)
# chain: SIKELLLDSTLDHIEALIAGIPELDPETVAALAKSVVKLAEAAIEELKGDKESLKKLLEGVEKLIKELEKHYKDNPLIQEAVKELKKVAEAIKKEIKKAE
# B2: GBRAP_166_4970 (protein)
# chain: MQEEIVKELKEFIDEKAEEMKTANHEEKLELLAEVAEKIGEAIKKGLSNENLKELIEYLIKKAKEVGISYSEVEGALTILADLDEEQVDILIEARKKVEK
# B3: GBRAP_184_5075 (protein)
# chain: SVREETIRVENVEEARAKMAALAERVRDHRGDLVVLVEMPEADLEIMRAVLEGLAAILAAGYARRVTVGFDAEVTEEQVDEAVALADRLGVNVVLPLKEE
# B4: GBRAP_9_7107 (protein)
# chain: KEEFAKKVKEIIEEAAEEIKKIVPEELKPKVDEMVEEILKEIDKLAKDKNTTVEEIAKAAKEGLKKMAEELSKLLSPEIAAGVETIVLTAIEEIDELAEE
# B5: GBRAP_83_6985 (protein)
# chain: KEEIVIATPADKAEEAAKIVIDLSKKYDVTLEILVTNREEDKQKVKDAVDKLAKAGVEMEVIVHGLGMTEEEAKKLKEELEAIAKKHGVDIKVTVVLEEK
# B6: GBRAP_128_3565 (protein)
# chain: STAELVAEARALLAAIKAADAEEARALAERLADLIAAASPEARAAIVETILARLPELTAEQLDILADVFAARRATADPAVAEALAEIQVEALNVREEKEE
# B7: GBRAP_160_4580 (protein)
# chain: SAKLEEALALIDEAAEFVKSLVDEVTLEEFINFLETEFGSVILELLDKGLITEEVADKLMEVVDEAVEYLKANPDLTPEERKELVDEMTAKMKAILKEAA
# B8: GBRAP_117_2578 (protein)
# chain: MEEREEVKRRLRETVREAGKRLEESKSLSPEERRKVEEEVRERIAEAVREALEVLSREEVLDIVEEELLEFDAETYFKIMSFVEEAIEEIREEEEREREE
# B9: GBRAP_137_3679 (protein)
# chain: MKVKITIEEHEDVVEITVTIEDKETGEELAEKIEDIAVEVGALAISVEKNEDGTYEVTIYVPKEKLEELLKKILELLKDADEVEIIRIVDGKETVEVIKN
# B10: GBRAP_125_3007 (protein)
# chain: DLEVVVELIRGLLELAGESESNIEEAERLAREQGGKNTLIAVLLAIGTEELADLARKLSPEQLVRVARRAVEYLKAHPDISLEEALEHLRRLIEEELAKA
# B11: GBRAP_11_2799 (protein)
# chain: KKEALEKMAKLAEELAKALEELIKEGVDNEELREKIEKLLKELKELAEKHADEGLRKLVEIAEELFKKIYEDPENAEEYAKLALATVRVLEGNILLEIEE
# B12: GBRAP_139_3711 (protein)
# chain: MKPEELIAEAKAIVKENKNDIEKLAKEIAELMSKADDETALLIARAAAEELKDFSWEEWEKLIELVSEELKKLGEEEDRVLAIEGEMEAVFAEQEIAKEK
# B13: GBRAP_95_7048 (protein)
# chain: DDDRLALESAVDVLETYLDLGEEEKARRAAREAVRLLREAGFDAVPADLSLEARRLLIREAARILSPEEVRALTDALLAVAPREEDKAALRAVAEAELAA
# B14: GBRAP_128_3424 (protein)
# chain: HMEEAVARARELLEKMLTADPEEAQKLADELVELFSSADLETAEAIAEVILEKLPEFTAEQLEILADALRKALPKLTPEKANVAAGVIVELLNRAEELEE
# B15: GBRAP_11_2786 (protein)
# chain: KKEKLKEIIKLAEEAIKLAKELKESGGNNQELIDKLKKLLEKLKELVKENMDEADKKLAEIAIEEFEKALADPANQQEHLDHAIAALEVLKGEALLRLEE
# B16: GBRAP_125_2995 (protein)
# chain: APEEVLAALARLLRALGFDDEDVAEAVALAARHGARGTLYAALKALGYDAAADAVARLTEAETAEVLLRVAAELEANPDLTPDEVAALILAVAEAVLAAS
# B17: GBRAP_9_7162 (protein)
# chain: MEELIEKMEKVVEEMFEEIKEVVPEEKQPVVDEERKEVLEKLKELKADPTVTKEEAAEKTIELVEEALEKIKKVVSPELAKQLEAIALTAILEIEEIKEE
# B18: GBRAP_52_5870 (protein)
# chain: MLEEAVKLLKEMVKAMKEGKKEEAKKIAKEIVEKFSDETILEAVKKLAEEVLTKSLEEAEAFFEAAELLSDIMLEAGRDENIASLIEAIAGAALYKVEQK
# B19: GBRAP_11_2836 (protein)
# chain: KKEKLKKIAEKAKEVAKELEKLIASGNPSQEELEKLLKKVEELLKLAKELGDESLVKLAEIALEEVKEAIEDKENQIEHLENALAAVRVLEGQALLLADE
# Molecular target: GABARAP, O95166
# Sequence (O95166 whole entry, the tested form may be a part): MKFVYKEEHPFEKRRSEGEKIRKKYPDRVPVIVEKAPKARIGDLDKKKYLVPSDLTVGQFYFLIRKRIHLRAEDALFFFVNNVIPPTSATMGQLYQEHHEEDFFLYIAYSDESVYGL
# Assay: median log2 fold change of GCK-ALFA target abundance (FLAG IP / Myc IP barcode read proportion) (log2 ratio); each designed protein is fused to an ALFA-tag nanobody in HEK293 cells to bring the named protein to FLAG-tagged glucokinase (GCK); Myc marks an untargeted standard; higher = target protein stabilised (more abundant)
# Settings: target protein: 3xFLAG-MCP-GCK-ALFA reporter; HEK293 landing pad (RPLP)
# How it was run: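 Sequencing of reverse-transcribed, amplified circular RNA barcodes from anti-FLAG and anti-Myc immunoprecipitates provided the readout for an ALFA-nanobody-fused binder library recombined into HEK293 landing-pad cells. Those cells were induced with 2 μg mL^−1 doxycycline, transfected with a plasmid expressing a FLAG-tagged target and a Myc-tagged standard, and lysed after 48 h. Target abundance is the per-binder median log2 ratio of FLAG to Myc barcode read proportions. Only barcodes at a proportion of ≥10^−7 in both replicates and binders with ≥3 barcodes per replicate were kept, with a 10^−6 pseudocount added before the two replicates were pooled.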
row,Binder,median log2 fold change
1,B1,-0.248
2,B2,-0.135
3,B3,0.0908
4,B4,0.487
5,B5,0.078
6,B6,0.318
7,B7,-0.17
8,B8,0.274
9,B9,-0.124
10,B10,0.128
11,B11,-0.208
12,B12,-0.0366
13,B13,0.121
14,B14,0.158
15,B15,0.178
16,B16,-0.0191
17,B17,0.179
18,B18,0.0828
19,B19,0.179

# Source: the supplement of paper PMC12632987
